# In paper PMC6919601, “Identification of Plasmodium dipeptidyl aminopeptidase allosteric inhibitors by high throughput screening” (PLoS ONE, 2019):
# In all, about 110,000 compounds went through this assay and about 230 (0.21%) showed an effect of 50% or more. The list shows a part of the results.
# Molecular target: DPAP1 (Plasmodium falciparum, UniProt Q8IIJ9)
# Assay: primary screen, percent inhibition; read by cleavage of a fluorogenic dipeptide substrate; higher = more effect of the substance
# Parameters: species or system P. falciparum D10 trophozoite lysates; single well
# 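Note: 30 min substrate incubation versus DMSO and 10 µM JCP410 controls.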
# DPAP1, sequence (Q8IIJ9 whole entry, looked up): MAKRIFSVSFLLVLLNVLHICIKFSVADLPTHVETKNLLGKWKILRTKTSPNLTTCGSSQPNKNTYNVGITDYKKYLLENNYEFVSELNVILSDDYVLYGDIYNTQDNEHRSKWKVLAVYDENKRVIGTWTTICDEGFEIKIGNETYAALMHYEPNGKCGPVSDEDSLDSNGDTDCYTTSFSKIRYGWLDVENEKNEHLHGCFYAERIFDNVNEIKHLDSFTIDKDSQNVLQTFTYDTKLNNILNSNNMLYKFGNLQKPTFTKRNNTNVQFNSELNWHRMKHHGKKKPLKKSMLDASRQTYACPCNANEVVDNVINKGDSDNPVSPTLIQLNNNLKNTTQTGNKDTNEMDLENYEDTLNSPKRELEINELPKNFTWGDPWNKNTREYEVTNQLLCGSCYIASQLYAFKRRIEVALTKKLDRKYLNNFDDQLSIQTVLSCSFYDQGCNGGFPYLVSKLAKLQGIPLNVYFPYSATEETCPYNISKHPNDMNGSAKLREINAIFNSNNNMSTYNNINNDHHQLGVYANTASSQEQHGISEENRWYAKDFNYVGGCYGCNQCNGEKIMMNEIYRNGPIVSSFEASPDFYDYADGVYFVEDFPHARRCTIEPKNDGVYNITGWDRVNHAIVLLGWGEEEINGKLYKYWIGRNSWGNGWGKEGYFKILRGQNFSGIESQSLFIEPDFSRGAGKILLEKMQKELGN
row,Structure (SMILES),% Inhibition @ 10 uM [%]
1,c1ccc(N2CCN(C3C4CC5CC(C4)CC3C5)CC2)cc1 (stereo not shown),1.29
2,CCCCOc1ccc(C(=O)Cc2ccccc2)cc1,-3.74
3,Cc1ccc(C(=O)C2=C(O)C(=O)N(c3nccs3)C2c2cccc(OCc3ccccc3)c2)o1 (stereo not shown),-3.65
4,COc1cccc(CNc2nc3c(S(=O)(=O)c4ccc(C(C)C)cc4)nnn3c3ccsc23)c1,5.09
5,Cc1cccc(C)c1NC(=O)C1(N(C)C(=O)CN2C(=O)c3ccccc3C2=O)CCCCC1,-3.98
6,Cc1ccc(S(=O)(=O)Cc2ccc(C(=O)N3CCCCCC3)o2)cc1,-1.28
7,COc1ccc(OC)c(NC(=O)CN(c2cccc3ccccc23)S(C)(=O)=O)c1,-9.56
8,COc1ccc(CN2CCN(Cc3cccc(Br)c3)CC2)cc1OC,-3.12
9,O=C(NCc1ccco1)c1ccc2c(c1)OCO2,-3.47
10,COc1ccc(C(=O)N2CCN(c3cc(Cl)ccc3C)CC2)cc1,-4.71
11,Cc1ccc(Nc2nc(N)nc(Cl)n2)cc1,0.00178
12,CCCCc1ccc(-n2c(C)cc(/C=C3\NC(=O)NC3=O)c2C)cc1,-4.48
13,O=C(/C=C/c1ccco1)Nc1nc(-c2ccc(Br)cc2)cs1,1.13
14,COc1ccc(N2C(=O)NC(=O)C(Cc3ccc(O)c(OC)c3)C2=O)cc1 (stereo not shown),6.69
15,Cc1cccn2c(=O)c(/C=C(\C#N)C(=O)N3CCCCC3)c(Oc3ccc(C(C)(C)C)cc3)nc12,3.63
16,Cc1cccc(NC(=O)C2CCN(S(=O)(=O)c3ccc(Br)cc3)CC2)c1C,-1.17
17,CC(C)N(C(=O)c1ccc(C(=O)Nc2ccc(Br)cc2)cc1)C(C)C,-11.9
18,COc1ccc(OC)c(N(CC(=O)NC2CCCCC2)S(=O)(=O)c2ccc(C)cc2)c1,0.189
19,Cc1ccc(-c2ncccc2O)cc1[N+](=O)[O-],7.58
20,Cn1cc(C(=O)N2CCc3ccccc32)cn1,-6.25
21,CCC1CCCCN1Cc1nc2c(c(=O)n(C)c(=O)n2C)n1CCOC (stereo not shown),-1.43
22,Cc1c(Cl)c(Cl)nc(Cl)c1C(=O)NC(=O)NCc1ccccc1Cl,2.8
23,COc1cc(OC)c(/C=C2\SC(=O)N(CC(=O)Nc3ccccc3F)C2=O)c(OC)c1,-7.09
24,COc1cc(/C(C#N)=C/c2cccc(Br)c2)c([N+](=O)[O-])cc1OC,-0.771
25,O=C(O)C12CC3CC(CC(C3)C1=O)C2,0.968

row,Structure (SMILES),% Inhibition @ 10 uM [%]
1,Cc1cc(/C=C2\C(=N)N3N=C(S(C)(=O)=O)SC3=NC2=O)c(C)n1-c1cccc2ccccc12,-3.39
2,O=C(Nc1cccc(Oc2ccc(C(=O)O)c(C(=O)O)c2)c1)c1ccc(F)cc1,-0.822
3,OCCN(Cc1ccccc1)Cc1ccsc1,1.74
4,Cc1ccc(S(=O)(=O)Nc2ccc(NC(=O)Nc3ccccc3)cc2)cc1,-5.13
5,CC1CCN(S(=O)(=O)c2ccc3c(ccn3CC(=O)NC3CCCCC3)c2)CC1,-2.93
6,O=C(Nc1cccc(C(F)(F)F)c1)/C(=C\c1cccnc1)NC(=O)c1ccsc1,4.67
7,COCCNC(=O)CCc1nnc2n(CCc3ccccc3)c(=O)c3ccccc3n12,-0.692
8,COc1cc(N2CCCC2)c(OC)cc1/C=C1\SC(=O)N(C(C)C)C1=O,3.35
9,Cc1ccc(OCCCCCCc2c(C)n[nH]c2C)cc1,1.35
10,CC1(c2cccc(OCc3cccc(Cl)c3)c2)NC(=O)NC1=O (stereo not shown),-9.6
11,O=C(CSc1nsc(SCC(=O)c2ccccc2)n1)c1ccccc1,-9.18
12,COc1ccc(-c2nc(SCC(=O)Nc3nccs3)c(-c3ccc(Cl)cc3)[nH]2)cc1,-1.58
13,CC1CCC(NC(=O)Nc2cn(C)c(=O)c3ccccc23)CC1 (stereo not shown),2.25
14,O=C(NCCc1ccccc1)C1CCN(S(=O)(=O)c2ccc3[nH]c4c(c3c2)CCCCC4)CC1,-3
15,Cc1cc(C)c2ccc(=O)c(O)c-2o1,7.55
16,CC(=O)N1C(=O)C2(C(C#N)=C(N)Oc3[nH]nc(-c4ccccn4)c32)c2ccccc21 (stereo not shown),2.46
17,Cc1cc(C)n2c(SCCO)nnc2n1,6.52
18,COc1ccccc1/C=C/c1ccc2c(c1)C(=O)c1ccccc1C2=O,6.23
19,Cc1cccc2sc(N(CCCN(C)C)C(=O)CCS(=O)(=O)c3ccccc3)nc12,-6.33
20,Cc1ccc(OCCCn2nnc3sc(-c4ccccc4)cc3c2=O)cc1,4
21,Cc1nc(=O)c(-c2ccccc2)c(C)n1C1CC(C)(C)NC(C)(C)C1,2.57
22,CCN(CC)S(=O)(=O)c1ccc(OC)c([N+](=O)[O-])c1,1.44
23,COc1ccc(CCNC(=O)c2nn(C)c3c2CS(=O)(=O)c2ccccc2-3)c(OC)c1,1.51
24,CN(CC(=O)Nc1ccc(Cl)cc1Cl)S(=O)(=O)c1ccc(F)cc1,-0.891
25,COc1ccc(C(=O)c2coc3ccc(O)c(CN4CCOCC4)c23)cc1,-2.5

row,Structure (SMILES),% Inhibition @ 10 uM [%]
1,Cc1ccc(-c2nc3nc(C)cc(N4CCN(c5ccccn5)CC4)n3n2)cc1,0.128
2,CC1=NN(C(=O)c2ccccc2O)C(O)(c2cccnc2)C1 (stereo not shown),-8.42
3,C=CCSc1nnc(-c2ccc(C)cc2)o1,4.95
4,CC(C)Oc1ccc(C(=O)Nc2cccc(O)c2)cc1,4.03
5,Cc1cc(C)c2c(-n3cccc3)c(C(=O)NC3CCN(Cc4ccccc4)CC3)sc2n1,-2.85
6,CNC(C)C(=O)C12CC3CC(CC(C3)C1)C2 (stereo not shown),-1.77
7,N#CCc1ccc(NC(=O)c2ccc3c(c2)OCO3)cc1,-4.12
8,N#Cc1c(C(F)(F)F)cc(-c2cccs2)nc1SCC(=O)Nc1ccccn1,2.44
9,CC(C)CCNC(=O)c1ccc(CSCc2ccccc2Cl)o1,1.62
10,CCn1cc(CNC(=O)c2cccc(Cl)c2)c(C)n1,-1.96
11,Cc1oc2ncn3c(C)nnc3c2c1C(=O)O,-2.4
12,CC1=C(C(=O)Nc2cc(C)ccn2)C(c2cnn(C)c2)C2=C(O)CCCC2=N1 (stereo not shown),-0.413
13,Cc1nccc2nc(O)c(C(=O)NCCCSC3CCCCC3)cc12,3.93
14,Cc1onc(-c2ccccc2Cl)c1C(=O)NC12CC3CC(CC(C3)C1)C2,-7
15,CC(C)CCNC(=O)c1nnc(Cc2c(F)cccc2Cl)o1,-0.0709
16,COc1ccc(CCNC(=O)C2CCN(S(=O)(=O)N3CCOCC3)CC2)cc1OC,-1.34
17,CCOC(=O)N1CCN(C(=O)c2ccc(CS(=O)(=O)c3ccc(Br)cc3)o2)CC1,3.77
18,COC(=O)c1cc(-c2ccccc2)no1,22.9
19,COc1ccc(-c2ccc(C(=O)N3CCOCC3)cc2)cc1,85.3
20,COc1ccc(-c2csc(NC(=O)CSc3nc(O)cc(-c4ccccc4)n3)n2)cc1,3.87
21,CCOC(=O)C1CCN(CC2CC=CCC2)CC1 (stereo not shown),-6
22,CC(C)(C)c1ccc(C(=O)NCCC(=O)NCCC2=CCCCC2)cc1,-0.256
23,Cc1ccc(-c2nc(NC(=O)CSc3nc(C)nc4sc5c(c34)CCC5)ns2)cc1,-1.33
24,O=C(COc1ccc(S(=O)(=O)NC2CCCCC2)cc1)NCC1CCCO1 (stereo not shown),5.49
25,CCCCC(CC(NC(=O)OCc1ccccc1)C(=O)NCC#N)c1ccccc1 (stereo not shown),2.92

row,Structure (SMILES),% Inhibition @ 10 uM [%]
1,CC(C)CCNC(=O)CCc1nnc2n(CCCOC(C)C)c(=O)c3ccccc3n12,-3.21
2,Cc1c(CNC2CCC(C)CC2)c(C(=O)O)c(C)n1Cc1c(F)cccc1Cl (stereo not shown),-0.23
3,CN1CCN(c2nc3c(c(=O)[nH]c(=O)n3C)n2CC(=O)c2ccccc2)CC1,0.331
4,CCCCN(c1cc(OC)c(OC)c(OC)c1)C1CC2CCC(C1)N2C (stereo not shown),-1.66
5,CCN(CC)C(=O)C1CC(c2ccc(F)cc2)=NO1 (stereo not shown),1.24
6,CCCC(CCC)C(=O)Nc1ccc2c(c1)Nc1ccccc1CC2,3.8
7,COc1ccc2c(CNCC(C)c3ccccc3)c(C(=O)O)[nH]c2c1 (stereo not shown),-2.97
8,CCCc1ccc(C#N)c(SCC(=O)Nc2ccc(OCC)cc2)n1,2.38
9,CCN1CCN(C(=O)c2cc(-c3ccc(OC)cc3)[nH]n2)CC1,0.44
10,CCOc1cc2c(cc1OCC)C(c1ccc(OC)cc1OC)NCC2 (stereo not shown),8.29
11,COc1cc2nc(SCc3ccccc3F)n3nc(CCn4nc(C)cc4C)nc3c2cc1OC,-0.499
12,N#CC1(NC(=O)[C@H](Cc2c(F)cccc2F)NC(=O)c2ccc(-c3ccccc3Cl)nc2)CCSCC1,-3.48
13,CC(=O)Nc1nonc1-c1nc2ccccc2n1CC#N,3.05
14,CN(C)Cc1nc(O)c2c(n1)-c1ccccc1CC21CCCCC1,3.98
15,COc1ccc(C2C(C#N)=C(N)Oc3[nH]c(C)nc32)cc1OCc1ccccc1 (stereo not shown),-0.725
16,Cn1c(O)c(/C=N/c2cccc(CO)c2)c2ccccc21,-7.08
17,CCC[C@H](NC(=O)C1(NC(=O)N2CCN(C(C)(C)C)CC2)CCCCC1)C(=O)c1nnc(-c2ccc(OC)cc2)o1,-4.72
18,CCOc1ccc(-c2cc(C(=O)N3CCCC3)c3ccccc3n2)cc1,0.316
19,CCN(CC)S(=O)(=O)c1cc(C(=O)ONC(=O)c2ccc(OC(F)F)cc2)ccc1Cl,3.66
20,Cc1ccc(Cn2c(C(=O)O)c(CNC(C)CCc3ccccc3)c3ccccc32)cc1 (stereo not shown),6.59
21,Cc1cccc(OCCCCCN2CCCCC2)c1C,-1.25
22,CCc1ccc(C2C(C(=O)c3ccc4c(c3)OCCO4)=C(O)C(=O)N2Cc2cccnc2)cc1 (stereo not shown),1.64
